# Experimental data reported in paper PMC4336329 (PLoS ONE, 2015).
# In all, about 310,000 compounds went through this assay and about 14,000 (4.5%) showed an effect of 50% or more. Effects have a minus sign here. Some of the results follow.
# Target: human ether-à-go-go-related gene (hERG) potassium channel (human, UniProt Q12809)
# Test: primary screen, population patch clamp on CHO cells stably expressing hERG
# 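Further: peak tail current of the secondary pulse compared with the same well before compound.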
# Sequence of human ether-à-go-go-related gene (hERG) potassium channel (Q12809 whole entry, looked up): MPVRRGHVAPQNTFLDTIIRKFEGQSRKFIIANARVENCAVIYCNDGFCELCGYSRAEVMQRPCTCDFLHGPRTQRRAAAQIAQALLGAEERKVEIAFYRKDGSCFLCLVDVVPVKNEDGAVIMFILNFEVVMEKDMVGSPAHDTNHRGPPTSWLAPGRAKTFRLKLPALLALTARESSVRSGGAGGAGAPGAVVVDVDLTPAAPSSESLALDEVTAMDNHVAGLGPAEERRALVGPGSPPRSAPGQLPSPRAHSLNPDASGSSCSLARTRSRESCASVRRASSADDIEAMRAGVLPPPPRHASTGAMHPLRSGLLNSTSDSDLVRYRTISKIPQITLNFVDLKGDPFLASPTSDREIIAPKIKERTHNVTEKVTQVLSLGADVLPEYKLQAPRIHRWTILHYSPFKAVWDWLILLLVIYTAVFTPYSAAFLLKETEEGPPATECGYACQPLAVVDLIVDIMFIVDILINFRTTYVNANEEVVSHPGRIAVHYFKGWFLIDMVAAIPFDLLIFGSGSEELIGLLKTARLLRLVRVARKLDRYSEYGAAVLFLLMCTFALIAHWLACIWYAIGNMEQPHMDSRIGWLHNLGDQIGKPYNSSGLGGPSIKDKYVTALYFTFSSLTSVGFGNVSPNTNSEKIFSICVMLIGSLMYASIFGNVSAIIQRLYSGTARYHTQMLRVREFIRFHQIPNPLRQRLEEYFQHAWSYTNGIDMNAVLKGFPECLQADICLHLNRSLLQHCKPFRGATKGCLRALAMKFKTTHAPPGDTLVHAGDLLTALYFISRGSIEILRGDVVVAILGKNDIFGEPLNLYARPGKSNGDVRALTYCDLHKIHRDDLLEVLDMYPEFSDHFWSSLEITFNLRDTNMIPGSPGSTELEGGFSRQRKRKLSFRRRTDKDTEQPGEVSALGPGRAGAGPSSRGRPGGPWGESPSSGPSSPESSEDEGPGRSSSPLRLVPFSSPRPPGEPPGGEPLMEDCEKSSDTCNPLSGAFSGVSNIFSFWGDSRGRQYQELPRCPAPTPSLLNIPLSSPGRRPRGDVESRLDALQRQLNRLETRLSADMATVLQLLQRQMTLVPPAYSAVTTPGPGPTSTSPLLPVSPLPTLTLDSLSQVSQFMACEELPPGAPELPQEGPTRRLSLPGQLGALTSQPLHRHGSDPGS
row,Compound,"hERG current change (%, negative = inhibition) at 10uM"
1,O=C(CCCl)N1CCCC2(CCCCC2)C1,-0.6%
2,O=C1[C@@H]2Cc3c([nH]c4ccccc34)CN2C(=O)CN1CCCCCO,10.3%
3,CCOC(=O)N1CCc2c(sc(NC(=O)CCS(=O)(=O)c3ccccc3)c2C(N)=O)C1,-10.8%
4,CC1CCC(NC(=O)CC(C)(C)Cc2nc3ccccc3c(=O)[nH]2)CC1 (stereo not shown),-7.76%
5,CNC(=O)C1(CC(C)C)C=CCN1C(C)=O (stereo not shown),10.3%
6,CCOc1ccc(NC(=O)CN2CCN(C(=O)c3ccco3)CC2)cc1S(=O)(=O)N1CCCC1,-21.2%
7,CC1(C(=O)Nc2cccc(S(=O)(=O)N3CCOCC3)c2)Cc2ccccc2C(=O)O1 (stereo not shown),19.8%
8,O=C(CSc1cccc[n+]1[O-])N1CCCc2ccccc21,10.8%
9,CC(O)CNCc1cccc2ccccc12.Cl (stereo not shown),17.7%
10,CCCNC(=O)C1CN(C(=O)c2nn(Cc3ccccc3)c(=O)c3ccccc23)c2ccccc2O1 (stereo not shown),0.692%
11,Cc1ccc(C)c(N2N=C(C(=O)Nc3cccnc3)CCC2=O)c1,-4.97%
12,CC(=O)Nc1ccc(N(C(=O)CNC(=O)c2ccco2)C(C(=O)NCc2ccco2)c2ccccc2F)cc1 (stereo not shown),28.9%
13,COc1ccc(Cl)cc1NC(=O)CN1CCN(S(=O)(=O)N2CCOCC2)CC1,-55.9%
14,CCOC(=O)c1cc(C)sc1/N=C/C1=C(O)CCCC1=O,-6.61%
15,O=C(Nc1ccc(Cl)cc1)c1ccc2nsnc2c1,13.5%
16,COc1cc(/C=C2/N=C(c3ccccc3)OC2=O)c(F)cc1OCc1ccccc1,10.1%
17,CSc1ccccc1NC(=O)Nc1ccccc1Cl,5.26%
18,Cn1c2ccccc2c(=O)n2c(=O)c3ccccc3cc12,-24.9%
19,O=C(CCn1cccc1)NCc1ccc2c(c1)OCO2,-0.49%
20,CCC1CO/C(=C(\C(=C(Cl)Cl)N2CCOCC2)[N+](=O)[O-])N1 (stereo not shown),1.07%
21,Cc1ccc(C2=NN(CC(=O)NCc3ccco3)C(=O)CC2)cc1,-37.9%
22,O=C(NC1CCCN(Cc2ccccc2F)C1)c1cccs1 (stereo not shown),-4.04%

row,Compound,"hERG current change (%, negative = inhibition) at 10uM"
1,S=c1nc[nH]c2c1[nH]c1ccc(Cl)cc12,16.4%
2,Cc1ccccc1-n1nc(C(=O)O)cc1-c1ccccc1,7.87%
3,CC(=O)Nc1cccc(NC(=O)COc2nncc3ccccc23)c1,-0.799%
4,CCCCN(CCCC)S(=O)(=O)c1ccc(C(=O)Nc2nnc(COC)o2)cc1,-28.2%
5,CC(=O)N1CCN(CC(=O)Nc2cc([N+](=O)[O-])ccc2Cl)CC1,15.5%
6,O=C(c1ccco1)N(CCC(c1ccccc1)c1ccco1)Cc1ccccc1 (stereo not shown),-14.8%
7,O=C1CCC(=O)N1c1ccc(NC2CCN(Cc3ccccc3)CC2)c([N+](=O)[O-])c1,2.23%
8,CC(C)(C)NC(=O)/C=C/c1cccc(C(F)(F)F)c1,-8.66%
9,Cc1cc(C)n2nc(SCC(=O)NC3CCCC(C)C3C)nc2n1 (stereo not shown),4.23%
10,COc1ccc(CCN(C(=O)C(F)(F)F)C(C(=O)NC2CCCCC2)c2ccc(C)s2)cc1OC (stereo not shown),19.3%
11,O=C(NC1CCCc2ccccc21)c1cc(Cl)ccn1 (stereo not shown),14.5%
12,O=C(Cc1cc(=O)[nH]c(=O)[nH]1)NCc1ccc(Cl)cc1,19.7%
13,CC1CCCCN1S(=O)(=O)c1ccc(C(=O)Nc2nnc(-c3ccco3)o2)cc1 (stereo not shown),-2.35%
14,Cc1nc2ccccc2n1C1CCN(Cc2nnnn2CCc2ccccc2)CC1.Cl,-68.6%
15,COc1cc(NC(=O)C2CC(=O)N(CCc3ccccc3)C2)cc(OC)c1 (stereo not shown),-12.8%
16,CCc1nnc(NS(=O)(=O)c2ccc(NC(=O)c3ccc(S(=O)(=O)N(CC)CC)cc3)cc2)s1,11.6%
17,COc1ccccc1-c1nc(C(=O)NCC2CCCO2)cc2c1[nH]c1ccccc12 (stereo not shown),-29%
18,COc1ccc(-c2ccc(C#N)c(SCC(=O)NC3CC3)n2)cc1OC,8.47%
19,CCOC(=O)Cc1nn(C(C)C)c(=O)c2ccccc12,26.6%
20,CCCCCCSc1ccc(-c2nc3ccc(C)cn3c2NCc2ccccc2)cc1.O=C(O)C(F)(F)F,6.22%
21,COc1cc(OC)cc(-c2sc3ccc(OC)cc3c2C#CC(C)(C)O)c1,17%
